Among the data in article PMC12136788 are binding signal values, retold here.

This is one part of the list.

The chains are these.
T1: UNK ZnF1-3 (human, UniProt Q9C0B0 31-174)
T1 sequence: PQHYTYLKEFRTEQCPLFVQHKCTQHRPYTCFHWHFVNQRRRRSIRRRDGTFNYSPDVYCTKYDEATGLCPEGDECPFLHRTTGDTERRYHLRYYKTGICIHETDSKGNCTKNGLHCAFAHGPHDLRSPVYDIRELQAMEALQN

B1: 166231856_166232689_1510_CDS_ENSG00000109466_ENST00000226725|human|control|control (ssRNA)
RNA: GGGAGUUCUACAGUCCGACGAUCCCUCCUUGUAUUCAUGGGAGCUACAUGAAACCACUCAUUAGACUUUAUGUUGUAUGCUUCCACAGAUGACAAACCUGUACUCCCAUCAAAGCCUCCCACAGCGUAUAAUAAUCCAUUUAACAACAGAGGAUUGAGCAUCA
B2: 117017677_117017797_2070_CDS_ENSMUSG00000020823_ENSMUST00000090433|mouse|control|control (ssRNA)
RNA: GGGAGUUCUACAGUCCGACGAUCGGAGACCUGCAGGGAGGCCAGCACGUCGUCCACUCGGGGUAGGUUGGUGGCAGCACAUGCUGGCAUGGUGUGGAAUUUCCACUGUAGGAUGUAGAAGCCUGGCCACCUGGUCACAUGGGACAACAGAGGAUUGAGCAUCA
B3: chr12:73313434:73313435:-_ENSMUSG00000021087_ENSMUST00000021497|mus_hu|motif|central (ssRNA)
RNA: GGGAGUUCUACAGUCCGACGAUCAAAUAUCCUAAGAGUACAAGGAACAGCCUAAAAACAGCUGUUUUAAGGUUUGUCUCGGAGAUUAUGGUACUGGAGGGAGGGGGGAAAGACAAUCAAUUUGCAGUAAUGAGUAAGAAGAGACAACAGAGGAUUGAGCAUCA
B4: chr1:225611761:225611762:-_ENSG00000143815_ENST00000272163|hu_mus|hu_hu_hu_mus_True|18_88 (ssRNA)
RNA: GGGAGUUCUACAGUCCGACGAUCCCAGGCCAUCGGCCUCUGACCACUUCACCAUCGACAAACUUCCUACUUGGCAUUUUCUAAAAUUAGUCUGGCCGCGCUCCGGCGGGAACUCCAGACGGCUCCCGACAGUCACCAGCAGCCCAACAGAGGAUUGAGCAUCA
B5: chr19:16212804:16212805:+_ENSG00000167460_ENST00000300933|hu_mus|hu_hu_hu_mus_False|78_78 (ssRNA)
RNA: GGGAGUUCUACAGUCCGACGAUCAACAAUUCUGGAGUGAAGGAAAGAUGUAACAUGCAAUUAAUUAAAAGCUCAGUCAGAAGGCACAUGGGCAACAAUGAUCACCCCAGCAUUCUCGCUUGGAAUGCUUAAAGACAAUCUGUUCAACAGAGGAUUGAGCAUCA
B6: chr2:131764077:131764078:+_ENSMUSG00000079037_ENSMUST00000091288|mus_mus|motif|central (ssRNA)
RNA: GGGAGUUCUACAGUCCGACGAUCAUACAUGCAAAGUUACAAAUAUAGAAAACGUGAAGUACAUGCAGAUUCAAAGACCAGCGGGGGGUCUGCUUUGGAAUCCUACGGAACUGAGUGCACGCUGAAAGCCCAAGGGUCACACGGCAACAGAGGAUUGAGCAUCA

The target of the assay is T1, UNK ZnF1-3. The assay is described as follows: nsRBNS (natural sequence RNA bind-n-seq); RBNS binding buffer (assumed for nsRBNS): 25 mM Tris pH 7.5, 150 mM KCl, 3 mM MgCl2, 0.01% Triton X-100, 500 ug/ml BSA, 20 U/ml SUPERase-In, 4 C; UNK is unkempt and MSI1 is Musashi-1; names of the RNAs are library labels; protein concentration not given here; high values mean tight binding.
B1 displayed a binding signal of 1.08 enrichment R. As for B2, the figure is 0.956 enrichment R; as for B3, 2.21 enrichment R.

B4: the binding signal was 1.21 enrichment R.

Consider B5, for which the binding signal was found to be 1.31 enrichment R.

Molecule B6 came in with a binding signal of 1.53 enrichment R.
